Results taken from the supplement of paper PMC12217912.
This is one part of the list. The full chains were built here from the parent and the listed change. Values near 0.05 are background.

B1: TEV protease; numbered along this chain (parent)
chain: MGESLFKGPRDYNPISSSICHLTNESDGHTTSLYGIGFGPFIITNKHLFRRNNGTLVVQSLHGVFKVKDTTTLQQHLVDGRDMIIIRMPKDFPPFPQKLKFREPQREERICLVTTNFQTKSMSSMVSDTSCTFPSGDGIFWKHWIQTKDGQCGSPLVSTRDGFIVGIHSASNFTNTNNYFTSVPKNFMELLTNQEAQQWVSGWRLNADSVLWGGHKVFMVKPEEPFQPVKEATQL

Variants of: B1
Assay: raw area under fraction-flipped curve 0-4 h after induction (AUC4h, not background-subtracted), DNA-recorder readout of cleavage of the substrate (dimensionless); higher = more cleavage of the substrate by the protease variant
Conditions: temperature: 34 °C; time window: 0-4 h after rhamnose induction
Protocol: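 In vivo DNA recorder in E. coli TOP10(DE3) ΔrhaA at 34 °C. Each TEVp single-site mutant (parent TEVp 0) is paired with a single-site variant of the 7-mer TEVs (canonical ENLYFQ|S). The substrate sits between flexible linkers in a Bxb1-sfGFP-TEVs-SsrA fusion, so cleavage stabilises Bxb1 and speeds flipping of a recombination array, read by NGS. The value is the raw area under the fraction-flipped curve over 0-4 h after rhamnose induction (AUC4h), with ≥20 reads per time point. It is not background-subtracted; inactive controls average about 0.047.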
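Also: Bxb1 expression induced with 0.2% (w/v) L-rhamnose at OD600 near 0.5, cultures sampled hourly, flipped fraction per protease–substrate barcode pair counted by paired-end Illumina sequencing.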

Row | Variant | area with substrate ENAYFQS | area with substrate ENDYFQS | area with substrate ENEYFQS | area with substrate ENFYFQS | area with substrate ENGYFQS | area with substrate ENHYFQS | area with substrate ENKYFQS | area with substrate ENMYFQS | area with substrate ENNYFQS | area with substrate ENQYFQS | area with substrate ENSYFQS | area with substrate ENTYFQS | area with substrate ENVYFQS | area with substrate ENWYFQS | area with substrate ENYYFQS | area with substrate ENRYFQS | area with substrate ENCYFQS | area with substrate ENIYFQS | area with substrate ENPYFQS
1 | E103C | 0.0547 | 0.0644 | 0.072 | 0.0685 | 0.0656 | 0.081 | 0.0596 | 0.117 | 0.0598 | 0.0568 | 0.0659 | 0.076 | 0.0886 | 0.0556 | 0.066 |  |  |  | 
2 | T114F | 0.0773 | 0.0481 | 0.0596 |  | 0.0573 | 0.0544 |  | 0.0873 |  | 0.0607 | 0.0625 | 0.0609 | 0.0859 | 0.0634 | 0.051 | 0.0704 |  |  | 
3 | E108T | 0.0562 | 0.061 | 0.056 | 0.0613 |  |  | 0.064 |  | 0.0625 | 0.0485 | 0.0524 | 0.0603 | 0.057 | 0.0486 |  | 0.0686 | 0.0696 | 0.0818 | 0.0439
4 | K98I | 0.0737 | 0.0643 | 0.0548 | 0.0601 | 0.057 |  | 0.0612 | 0.0634 | 0.062 | 0.0582 | 0.0613 | 0.07 | 0.0743 | 0.013 | 0.0556 |  | 0.0809 | 0.0906 | 0.0446
5 | Q105M | 0.0664 | 0.059 | 0.067 |  | 0.0483 | 0.0565 | 0.0551 | 0.0892 | 0.0705 | 0.0482 | 0.0576 | 0.0646 | 0.0886 | 0.0704 | 0.0897 | 0.0411 | 0.0786 | 0.106 | 0.0548
6 | Q105C | 0.103 | 0.0656 | 0.0441 |  |  | 0.0535 | 0.0622 |  | 0.0643 | 0.0576 | 0.0517 | 0.0577 | 0.0862 | 0.0538 |  |  | 0.0679 | 0.0954 | 
7 | R102T | 0.0519 |  |  |  | 0.0617 | 0.0354 |  |  |  | 0.0414 | 0.0534 | 0.0445 | 0.0494 |  |  |  | 0.0885 |  | 
8 | R102A | 0.0492 | 0.0544 | 0.0536 | 0.0533 | 0.0576 | 0.055 |  | 0.0405 | 0.0511 | 0.0467 | 0.0527 | 0.053 | 0.0585 | 0.0575 |  | 0.0564 | 0.056 |  | 0.054
9 | R102C | 0.0489 | 0.049 | 0.0619 | 0.0511 | 0.0608 | 0.048 | 0.0843 | 0.0545 | 0.061 | 0.0411 | 0.0524 | 0.0591 | 0.0571 | 0.0392 |  |  |  | 0.0663 | 0.0482
10 | L77S | 0.0584 | 0.0603 | 0.0532 |  | 0.0505 |  |  | 0.0593 | 0.0601 | 0.0582 | 0.0605 | 0.0514 | 0.0609 |  |  | 0.0582 |  | 0.0664 | 0.0435
11 | L77N | 0.0482 | 0.0643 | 0.0703 |  | 0.0596 | 0.0536 |  | 0.055 | 0.0485 | 0.0733 | 0.0574 | 0.0584 | 0.039 | 0.0594 | 0.0715 | 0.0637 | 0.0597 | 0.105 | 0.0596
12 | M83T | 0.055 | 0.0612 | 0.079 | 0.054 |  |  | 0.061 | 0.0761 |  | 0.0678 | 0.0632 | 0.0609 | 0.058 |  |  |  | 0.083 | 0.064 | 0.0592
